In all, about 33,000 sequences were measured (“E-score (-0.5 to 0.5)”: median about -0.013, highest 2% from about 0.3 on). The list shows a part of the results.
Molecular target: T1, Msn1 (UniProt P22148)
T1 sequence: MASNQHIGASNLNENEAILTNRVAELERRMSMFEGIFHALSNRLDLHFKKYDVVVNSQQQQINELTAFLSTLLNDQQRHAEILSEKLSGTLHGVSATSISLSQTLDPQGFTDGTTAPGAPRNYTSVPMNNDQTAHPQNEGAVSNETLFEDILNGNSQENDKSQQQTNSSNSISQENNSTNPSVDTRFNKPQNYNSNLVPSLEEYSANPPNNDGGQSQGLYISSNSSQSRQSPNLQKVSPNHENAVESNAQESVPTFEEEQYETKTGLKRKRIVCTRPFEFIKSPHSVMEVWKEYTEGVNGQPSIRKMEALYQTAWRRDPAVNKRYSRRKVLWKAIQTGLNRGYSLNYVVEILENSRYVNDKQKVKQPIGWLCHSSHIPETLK
Assay: PBM E-score (8-mer binding enrichment) (E-score (-0.5 to 0.5)); higher = stronger / more preferred TF binding; most listed sequences are background and not binding sites
Conditions: protein concentration: 200 nM; construct: GST-full length
Method in brief: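 Yeast transcription factors, full-length or as DNA-binding domains, were expressed with a GST tag using PURExpress in vitro transcription/translation. At about 100-200 nM they were applied to universal all-10-mer Agilent arrays, double-stranded by primer extension on fresh or once-stripped slides. Fluorescent anti-GST detected bound protein, and masliner normalised the scans. E-scores for ungapped eight-base words, pooled with reverse complements, came from the Universal PBM Analysis Suite.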

Sequence	PBM E-score
GCATTGCA	-0.0621
AAGGGCAC	-0.153
CGGAGTCC	-0.00443
CGCGGCTA	-0.0186
ACATGTGC	0.0743
CGGGTCGA	-0.166
CCTACCGA	-0.166
AAAGGGTG	-0.162
ACGGATTG	0.115
GATGCTGC	-0.118
CTAGAGAC	-0.0426
CTCGGAAG	0.0158
GACCTCTC	-0.0307
AACTACCG	-0.0649
GATAAACC	0.118
GGGGTTGA	-0.225
AACATCGT	-0.00311
CGTTGGCA	0.0434
CGCAATCC	0.0533
AATTACTC	0.133
GTTAGGCA	-0.105
ACTGTCAG	0.124
ACCGTGTG	-0.113
GAGGTCTA	-0.0808
ACTCCTTC	-0.277

Sequence	PBM E-score
ACCCCTCT	-0.318
AGCTAGAG	-0.071
CGGCTTTC	-0.00528
GACCAGGA	0.102
TGGGTGAA	0.166
GCGGCTAA	-0.0202
ACAGGAAT	0.134
AGGATAAG	-0.249
CGAATATC	0.0301
CACCTGAG	-0.0701
TAGCATGA	-0.0902
TATTCTAA	0.143
TTCATCAA	-0.105
CGATCGAC	0.0408
ATTCAATA	0.211
CTACTATC	0.234
ATCAGTAC	0.156
ACGGGCAA	-0.035
CAGACCCG	-0.0499
GTCTAAAC	0.0711
CAATTCAG	0.0996
TTCGTCAA	-0.0823
CCCCATGC	-0.294
AAGAACGT	0.0227
ATCAACAT	0.0928

Sequence	PBM E-score
AGGTAAGA	0.0114
CTAGCGAG	-0.205
TGCCTCCA	-0.291
CAGCGTGC	-0.176
ATTTTCAC	0.175
CCAGTCCC	-0.193
GCGTATGA	-0.00068
AATTATAG	0.063
AACCAATG	0.0117
AAGCCAAC	-0.0995
AATACAAT	0.1
AACGGTGA	-0.0571
ATCCGTTC	0.0622
CACGACGA	-0.161
ATGAGATC	0.0277
CAAATTAA	0.0951
CAAAACGA	0.153
AAGTGGAG	-0.108
AATCATGC	-0.255
CTCAAGCA	-0.0897
ATCACCTA	0.0704
TAAACAGA	0.02
CATTCTGC	0.165
GAGGATCC	-0.0362
GTCTCGTA	-0.0386

Sequence	PBM E-score
ACACATGC	0.0801
AATAGTTA	-0.1
ACGCCTAC	-0.136
GAATGACC	0.201
CCTTCCGC	-0.175
ACCGTTAT	0.0456
ACTCATCA	-0.0883
AGGCACCA	-0.178
AATCGATA	0.172
CCTCCAAG	-0.0188
ATTAACAA	0.257
GAACACCA	-0.0259
AGAGCCCG	-0.226
TCGATAGA	0.028
TCATCAAA	0.0326
TCGTTAAA	-0.0199
CACATCTC	0.0156
ACCCATCC	-0.197
AAGTGGGG	-0.261
GAGCAATA	-0.0215
AGCACTTC	-0.118
CATTAGTA	0.213
CTTAAAGC	0.0598
CCACTGGA	-0.216
ATCCTGAG	0.118

Sequence	PBM E-score
ATGTGCCA	0.0995
AATTACAG	0.0932
CCTATCCC	0.0752
CCAAAATC	0.0937
GCGCCACA	-0.184
AAATTTTA	0.0681
AGACGCCC	-0.089
AACGTGAT	-0.103
CCGATTGA	0.0682
CCATGGCG	0.059
AACTCAGA	0.0578
AAAATGCA	-0.0363
CCTTTCCG	0.0597
CTTCACGC	0.157
CTCCCGAA	-0.206
ATCCACTA	0.0543
CACAGTGC	-0.156
CAGCTAAA	-0.123
CAACATGA	0.0232
AGCAGTAT	0.0528
AACGTATT	-0.0825
GGGGAGAC	-0.132
GCATATCA	0.0793
GCCTTTCC	-0.0629
GGAAACCC	-0.0913

Sequence	PBM E-score
GCGTTAAA	-0.0148
AAACCAAT	0.126
GCAGACTA	-0.039
GGGATGGA	-0.159
CCGAAAGC	0.0281
TAACGTGA	-0.034
CATGTTCG	-0.00769
CGTCCCTC	-0.0571
CCGTTTCC	-0.0828
AAGTGGCT	-0.104
TCAGAGGA	-0.12
CGCTGCAG	-0.119
AAGTAGTC	0.135
CAAGGCCG	0.0133
GATGTTAC	0.17
GGCATAGA	0.055
AGCCACTC	-0.15
CGAAAAAA	0.138
ACGCTGCG	-0.258
CTTACCTC	-0.0517
ATCCCAGC	-0.0949
AGTCAAGA	0.0713
AAGGTGAA	0.00642
GTAGAAAC	0.0458
AAAATTTT	0.198

Sequence	PBM E-score
ATTTGCTA	0.215
AACCGTAG	-0.184
AAAGTTCG	0.187
CGAACCAA	0.0114
GGACTTAA	0.219
CCCGCGAG	-0.0558
AAAATCAC	0.0304
CAGTTCCA	-0.104
CACACTGC	-0.103
AGTCCTAT	0.201
CGCTCAAG	0.00687
TCCCAACA	0.0539
CCTCAACA	0.076
ACCCAGTC	-0.129
CGAAGCAA	0.182
GTATTTTA	-0.00365
AGGTGTGG	-0.144
ACCTGTGA	0.0752
GTCTAGGA	0.0657
AGATGGCG	-0.00752
ATCATTCG	0.104
TACCAGCA	0.00785
CACCATAA	-0.0553
GGGAGCAC	-0.276
ATCGCGAG	0.0782

Sequence	PBM E-score
AGTAGCAG	-0.0373
GAAGTTAC	0.0622
CCAATACA	0.0713
GATTGTAC	0.0546
ATAAGTCA	0.239
TCTGAGAA	0.169
ACTTATAA	0.333
CAAGCCCG	-0.0308
ATAAAGAG	-0.072
AAACGTGT	0.0538
GACGGCCA	-0.0578
GCGCCGTA	0.188
CACTGATG	-0.091
TCATGAGA	0.0439
CAAAGGAG	-0.184
CATGACGA	0.033
ACGGTACA	0.172
ATCCCGTC	-0.0856
CAGTCCTC	-0.254
AAGGGGGT	-0.315
AATGGTCG	-0.0526
CAAGCCGC	-0.155
CCCTGCCC	-0.252
ATTGCATG	0.189
GCTTTGTA	0.25

Sequence	PBM E-score
ACTTTGAG	-0.06
AGTAAATG	0.168
AACGATCC	-0.165
CCTTTTAA	0.0291
CTGCGATA	0.0274
AAGAGCCA	0.137
GACACATC	0.23
GACACTCC	0.146
CCAGGAGC	-0.237
ATCCAATG	-0.191
CTCATGGA	-0.0407
GGGATGTA	-0.0101
AAGAGACC	-0.0422
GGGGAAAC	-0.0205
GTATTGAC	-0.0493
ACGACCGA	0.0849
TAGAGGCA	-0.144
GTTTCTCA	0.0621
AACTGGTG	-0.265
